According to US7473708B2, “Agents with leukotriene B4-like antiviral (enveloped RNA) activities” (priority 1996, dated 2009):

System: HSV-1
Test: Synthesis of HSV-1 particles in Vero cells
Settings: 100 nM LTB4, five days

## CCCCC/C=C\C[C@@H](O)/C=C/C=C/C=C\[C@@H](O)CCCC(=O)O [LTB4, 5S,12R-dihydroxy-6,8,10,14 (Z,E,E,Z)-eicosatetraenoic acid]
  inhibition of synthesis of HSV-1 particles (decrease of HSV-1 antigen positive Vero cells): 70%
